Measurements reported in PMC12040169 (PLOS Biology, 2025).
The list shows a part of the results.

Each compound was assayed on T1, C. trachomatis L2/434/Bu expressing GFP (CTL2-GFP). Conditions: total inclusion area; 28.5 h, 10 µM; inhibitor.
T1 construct: L2/434/Bu GFP intracellular growth in HeLa cells
Design: species or system HeLa; C. trachomatis total inclusion area by high-content imaging, normalised to DMSO
In short: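 Host cell viability was gauged from Hoechst-stained nuclei counts, while chlamydial growth was taken from total inclusion area and inclusion number per well. Cells were fixed and imaged by high-content microscopy once bulk GFP and resorufin fluorescence had been measured.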

| SMILES | % of control remaining |
| --- | --- |
| COc1ccc([C@@]23CCN(C(=O)c4ccc(Cl)c(Cl)c4)C[C@@H]2CN(C)C3)cc1OC [CBK074308T] | 67.7156 |
| N#CCCN1CCCC2(C1)NCCc1c2[nH]c2ccccc12 (stereo not shown) [CBK040031] | 94.1506 |
| CC(C)(C)c1ccc(C(=O)NCCNC(=O)c2nonc2N)cc1 [CBK268869] | 89.8774 |
| O=C(OCCc1ccncc1)N1Cc2ccccc2C1 [CBK200141] | 99.3804 |
| CN1CCN(c2cccc(-c3ccccc3Oc3ccccc3)n2)CC1 [CBK037598] | 113.227 |
| Cc1ccc(N(Cc2ccccc2OC(=O)c2cccnc2)C2=NS(=O)(=O)c3ccccc32)cc1 [CBK265760] | 82.4245 |
| CCNc1cncc(-c2ccc(F)c(Cl)c2)n1 [CBK065322] | 65.6859 |
| Oc1cccc(OCCOc2nccnc2N2CCCC2)c1 [CBK115756] | 99.199 |
| Cc1ccc(C)n1-c1cccc(C(=O)N2CCn3cnnc3C2)c1 [CBK283646] | 81.064 |
| COc1ccc(NC(=S)NC(=O)c2cc3c(C)nn(-c4ccccc4)c3s2)cc1[N+](=O)[O-] [CBK265324] | 116.256 |
| COc1ccc(C2=NN(c3ccccc3)C(c3ccc(OC)c(OC)c3C(=O)O)C2)cc1 (stereo not shown) [CBK262679] | 112.1 |
| CN1CCC(N2CC[C@@H]3[C@H]2C(=O)NC[C@H](CCC(=O)NCc2ccc(F)cc2)N3C)CC1 [CBK289022] | 106.664 |
| CCCC(C(=O)O)C(C)CC(=O)Nc1ccccc1Cl (stereo not shown) [CBK286927] | 93.8173 |
| COc1cc(-c2nccnc2NCCc2ccccn2)cc(OC)c1OC [CBK037307] | 118.454 |
| Nc1nc(Cl)cc(Sc2ccc3ccccc3c2)n1 [CBK021630] | 67.5682 |
| COc1ccc(CCNC(=O)c2cc3c([nH]c2=O)CCC3)cc1C [CBK281627] | 95.8034 |
| Cc1ccc(NC(=O)CN2CCN(Cc3ccc4c(c3)OCO4)CC2)cc1 [CBK074403] | 125.716 |
| O=C(c1cc[nH]n1)N1CCCC(c2cc3ccccc3cn2)C1 (stereo not shown) [CBK284921] | 100.434 |
| CCCNc1cncc(-c2cccnc2)n1 [CBK037921] | 72.4981 |
| Cc1nn(C)cc1C(=O)N1CCCCC1c1nc2ccccc2[nH]1 (stereo not shown) [CBK283779] | 71.1553 |
| CC(c1ccc(F)c(F)c1)N(C)C(=O)Cn1[nH]c(=O)ccc1=O (stereo not shown) [CBK305810] | 57.9093 |
| O=C(NCc1c(Cl)cccc1Cl)N(Cc1cccnc1)Cc1ccc2c(c1)OCO2 [CBK159450] | 38.7346 |
| COC12CCCC(C(=O)O)(CCC1)C2 [CBK038238] | 58.467 |
| COc1ccc([N+](=O)[O-])cc1NC(=O)C1(c2ccc(OC)c(OC)c2)CCOCC1 [CBK266243] | 119.419 |
| O=C(NC[C@H]1CC[C@H](c2nnc(-c3ccsc3)o2)CC1)C1CC1 [CBK283361] | 98.5274 |
| CCN(CC)C(=O)COc1ccc(NC(=O)Nc2cc(C)on2)cc1Cl [CBK305734] | 42.6113 |

| SMILES | % of control remaining |
| --- | --- |
| COC(=O)c1c(COC(=O)c2cnc(Cl)c(Cl)c2)nc2ccccc2c1C [CBK296940] | 105.049 |
| CSCc1nnc(SCc2ccccc2Oc2ccccc2)o1 [CBK296743] | 67.9309 |
| NCc1ccc(OC2CCNCC2)cc1 [CBK003920T] | 97.3532 |
| CC(=O)N1CCCc2cc(C(O)CN3CCC(C)CC3)ccc21 (stereo not shown) [CBK282588] | 111.14 |
| Cc1ccc(S(=O)(=O)c2cncc(N3CCNCC3)n2)cc1 [CBK051166C] | 76.8165 |
| Cc1ccc(-c2oncc2C(=O)N2CCC(n3c(=O)[nH]c4ccccc43)CC2)cc1 [CBK149180] | 80.6176 |
| CCn1c2ccccc2c2cc(C(N)=O)c(N)nc21 [CBK019787] | 95.4332 |
| CCNC(=O)c1c(O)c2ccccc2[nH]c1=O [CBK262450] | 78.5868 |
| COc1ccc(-c2ccc3c(c2)C(=O)N2CC[C@H](N)C[C@H]2C(=O)N3)c(OC)c1 [CBK289560] | 80.3386 |
| OCC(CNc1ncnc2nc[nH]c12)Cc1ccccn1 (stereo not shown) [CBK304412] | 66.5868 |
| O=S(=O)(CCc1ccccn1)N1CCC(Cc2ccccc2)CC1 [CBK043632] | 73.8108 |
| COc1ccc(CN2CCN(Cc3cccnc3)CC2)cc1OC [CBK074409G] | 91.3153 |
| CCOC(=O)c1c(NC(=O)CSc2ncnc3sc(C)c(C)c23)sc(C)c1C [CBK266440] | 106.523 |
| Cc1cc(NC(=O)N(Cc2cnn(C)c2)CC(C)C)ccc1F [CBK304206] | 22.2471 |
| COc1ccc(C2c3cc(OC)c(OC)cc3CC(=O)N2c2ccc(C(=O)O)cc2)cc1 (stereo not shown) [CBK296074] | 111.768 |
| O=C(NCc1ccco1)c1cc(-c2ccc(Cl)cc2)cnc1N1CCOCC1 [CBK076352] | 94.3041 |
| COc1cc(C)c(Nc2cc(-c3ccc4c(c3)OCO4)ncn2)cc1OC [CBK037711] | 117.195 |
| CC(C)(C)c1cn2c3ccccc3nc2n1CCO [CBK273412] | 94.3894 |
| O=C(NCCn1nc(-c2ccco2)ccc1=O)c1ccccc1F [CBK283742] | 65.5331 |
| CC(C)(c1ccccc1)c1ccc(OCCNCCN)cc1 [CBK265102] | 57.3924 |
| O=C(c1cccnc1)N1CCC(c2cc3ccccc3cn2)CC1 [CBK284891] | 62.9972 |
| CC(=O)c1ccc(-c2nc(NS(C)(=O)=O)cc3cccnc23)cc1 [CBK061874] | 84.6319 |
| C[C@@H](Cn1nnc2ccccc21)NC(=O)Cc1cccs1 [CBK282312] | 89.8397 |
| O=S(=O)(CCN1CCC2(CC1)CN(CCO)c1ccccc12)c1ccccc1 [CBK126758] | 58.3046 |
| Cc1nn(C)c(C)c1NC(=O)COc1ccc2c(c1)CCCC2=O [CBK304963] | 94.2817 |
| Cc1cc(C)cc(-c2ccc(CC3(C(=O)NC(C)CO)CCOCC3)cc2)c1 (stereo not shown) [CBK286523] | 89.3497 |
